In the supplement of paper PMC11741623:
Some of the results follow. Interaction screen of human proteins with wild-type SARS-CoV-2 proteins by split-DHFR complementation in yeast, 1 µg/mL methotrexate. Value = fitness of the pair (three or more lineages) minus that of the viral protein without a human partner, on a scale set by negative (0) and fused positive (1) controls, mean of up to three cultures; higher = more likely to interact. Active = false discovery rate below 0.05 (one-sided t-test) in at least one culture. Nearly all pairs are not hits, and differences among them are mostly noise (correlation between cultures about 0.3); most hits were seen in one culture only. Human sequences are the Swiss-Prot entries looked up by gene name; the clone may be another isoform. NSP2 values were corrected by the authors for a growth advantage. Listed are human proteins with a hit and a random twelfth of the others.

Columns and labels:
Assay in all cases: yeast fitness gain over the viral ORF with no human partner (scaled fitness); higher = more likely to interact
SARS-CoV-2 M = biological target: SARS-CoV-2 M
Experimental: (§1)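 Split mouse DHFR complementation in pooled diploid yeast: human ORFeome clones carry one fragment and viral ORFs the other; barcoded lineages compete in 1 µg/mL methotrexate and fitness is read by barcode sequencing in up to three cultures.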

SARS-CoV-2 NSP1 = biological target: SARS-CoV-2 NSP1
Experimental: as §1

SARS-CoV-2 NSP10 = biological target: SARS-CoV-2 NSP10
Experimental: as §1

SARS-CoV-2 NSP12 = biological target: SARS-CoV-2 NSP12
Experimental: as §1

SARS-CoV-2 NSP13 = biological target: SARS-CoV-2 NSP13
Experimental: as §1

SARS-CoV-2 NSP15 = biological target: SARS-CoV-2 NSP15
Experimental: as §1

SARS-CoV-2 NSP16 = biological target: SARS-CoV-2 NSP16
Experimental: as §1

SARS-CoV-2 NSP2 = biological target: SARS-CoV-2 NSP2
Experimental: as §1

SARS-CoV-2 NSP4 = biological target: SARS-CoV-2 NSP4
Experimental: as §1

SARS-CoV-2 NSP5 = biological target: SARS-CoV-2 NSP5
Experimental: as §1

SARS-CoV-2 NSP6 = biological target: SARS-CoV-2 NSP6
Experimental: as §1

SARS-CoV-2 NSP7 = biological target: SARS-CoV-2 NSP7
Experimental: as §1

SARS-CoV-2 NSP8 = biological target: SARS-CoV-2 NSP8
Experimental: as §1

SARS-CoV-2 NSP9 = biological target: SARS-CoV-2 NSP9
Experimental: as §1

SARS-CoV-2 ORF10 = biological target: SARS-CoV-2 ORF10
Experimental: as §1

SARS-CoV-2 ORF3A = biological target: SARS-CoV-2 ORF3A
Experimental: as §1

SARS-CoV-2 ORF3B = biological target: SARS-CoV-2 ORF3B
Experimental: as §1

SARS-CoV-2 ORF6 = biological target: SARS-CoV-2 ORF6
Experimental: as §1

SARS-CoV-2 ORF7A = biological target: SARS-CoV-2 ORF7A
Experimental: as §1

SARS-CoV-2 ORF7B = biological target: SARS-CoV-2 ORF7B
Experimental: as §1

SARS-CoV-2 ORF8 = biological target: SARS-CoV-2 ORF8
Experimental: as §1

SARS-CoV-2 ORF9B = biological target: SARS-CoV-2 ORF9B
Experimental: as §1

[1] = biological target: SARS-CoV-2 ORF9Bwu (the 73-codon ORF)
Experimental: as §1

SARS-CoV-2 S = biological target: SARS-CoV-2 S
Experimental: as §1

SARS-CoV-2 N = biological target: SARS-CoV-2 N
Experimental: as §1

SARS-CoV-2 NSP14 = biological target: SARS-CoV-2 NSP14
Experimental: as §1

Measured: yeast fitness gain

B1: ARL2BP, Q9Y2Y0 (protein)
chain: MDALEGESFALSFSSASDAEFDAVVGYLEDIIMDDEFQLLQRNFMDKYYLEFEDTEENKLIYTPIFNEYISLVEKYIEEQLLQRIPEFNMAAFTTTLQHHKDEVAGDIFDMLLTFTDFLAFKEMFLDYRAEKEGRGLDLSSGLVVTSLCKSSSLPASQNNLRH
inactive: SARS-CoV-2 M -0.137 | SARS-CoV-2 NSP1 = 0.0444 | SARS-CoV-2 NSP10 = -0.0665 | SARS-CoV-2 NSP12 = -0.177 | SARS-CoV-2 NSP13 = -0.0512 | SARS-CoV-2 NSP15 = 0.00879 | SARS-CoV-2 NSP16 = -0.024 | SARS-CoV-2 NSP2 = -0.0507 | SARS-CoV-2 NSP4 = -0.14 | SARS-CoV-2 NSP5 = 0.0114 | SARS-CoV-2 NSP6 = -0.105 | SARS-CoV-2 NSP7 = 0.0306 | SARS-CoV-2 NSP8 = -0.0942 | SARS-CoV-2 NSP9 = 0.00507 | SARS-CoV-2 ORF10 = 0.0368 | SARS-CoV-2 ORF3A 0.0667 | SARS-CoV-2 ORF3B -0.0743 | SARS-CoV-2 ORF6 = -0.00448 | SARS-CoV-2 ORF7A -0.0307 | SARS-CoV-2 ORF7B 0.0216 | SARS-CoV-2 ORF8 = -0.0189 | SARS-CoV-2 ORF9B -0.0342 | [1] -0.0676 | SARS-CoV-2 S 0.026

B2: B9D2, Q9BPU9 (protein)
chain: MAEVHVIGQIIGASGFSESSLFCKWGIHTGAAWKLLSGVREGQTQVDTPQIGDMAYWSHPIDLHFATKGLQGWPRLHFQVWSQDSFGRCQLAGYGFCHVPSSPGTHQLACPTWRPLGSWREQLARAFVGGGPQLLHGDTIYSGADRYRLHTAAGGTVHLEIGLLLRNFDRYGVEC
inactive: SARS-CoV-2 M -0.154 | SARS-CoV-2 N 0.0778 | SARS-CoV-2 NSP10 = -0.00604 | SARS-CoV-2 NSP12 = -0.175 | SARS-CoV-2 NSP13 = 0.0388 | SARS-CoV-2 NSP14 = -0.263 | SARS-CoV-2 NSP16 = 0.00791 | SARS-CoV-2 NSP2 = -0.0825 | SARS-CoV-2 NSP5 = 0.0996 | SARS-CoV-2 NSP7 = -0.0151 | SARS-CoV-2 NSP8 = -0.0741 | SARS-CoV-2 NSP9 = -0.142 | SARS-CoV-2 ORF10 = -0.0518 | SARS-CoV-2 ORF3A 0.0649 | SARS-CoV-2 ORF3B 0.008 | SARS-CoV-2 ORF6 = 0.0496 | SARS-CoV-2 ORF7A -0.0254 | SARS-CoV-2 ORF7B -0.0731 | SARS-CoV-2 ORF8 = -0.076 | SARS-CoV-2 ORF9B -0.0966 | [1] 0.0782 | SARS-CoV-2 S 0.0144

B3: CD5L, O43866 (protein)
chain: MALLFSLILAICTRPGFLASPSGVRLVGGLHRCEGRVEVEQKGQWGTVCDDGWDIKDVAVLCRELGCGAASGTPSGILYEPPAEKEQKVLIQSVSCTGTEDTLAQCEQEEVYDCSHDEDAGASCENPESSFSPVPEGVRLADGPGHCKGRVEVKHQNQWYTVCQTGWSLRAAKVVCRQLGCGRAVLTQKRCNKHAYGRKPIWLSQMSCSGREATLQDCPSGPWGKNTCNHDEDTWVECEDPFDLRLVGGDNLCSGRLEVLHKGVWGSVCDDNWGEKEDQVVCKQLGCGKSLSPSFRDRKCYGPGVGRIWLDNVRCSGEEQSLEQCQHRFWGFHDCTHQEDVAVICSG
inactive: SARS-CoV-2 M -0.0714 | SARS-CoV-2 NSP1 = -0.000721 | SARS-CoV-2 NSP10 = 0.00174 | SARS-CoV-2 NSP12 = 0.107 | SARS-CoV-2 NSP13 = 0.0549 | SARS-CoV-2 NSP16 = 0.0154 | SARS-CoV-2 NSP2 = -0.0947 | SARS-CoV-2 NSP5 = 0.091 | SARS-CoV-2 NSP6 = -0.11 | SARS-CoV-2 NSP8 = -0.0831 | SARS-CoV-2 ORF3B 0.0376 | SARS-CoV-2 ORF6 = -0.0667 | SARS-CoV-2 ORF7A 0.0711 | SARS-CoV-2 ORF7B -0.0057 | SARS-CoV-2 ORF8 = -0.014 | SARS-CoV-2 ORF9B -0.0588 | [1] 0.0172 | SARS-CoV-2 S 0.0295

B4: C18orf1, O15165 (protein)
chain: MPEAGFQATNAFTECKFTCTSGKCLYLGSLVCNQQNDCGDNSDEENCLLVTEHPPPGIFNSELEFAQIIIIVVVVTVMVVVIVCLLNHYKVSTRSFINRPNQSRRREDGLPQEGCLWPSDSAAPRLGASEIMHAPRSRDRFTAPSFIQRDRFSRFQPTYPYVQHEIDLPPTISLSDGEEPPPYQGPCTLQLRDPEQQMELNRESVRAPPNRTIFDSDLIDIAMYSGGPCPPSSNSGISASTCSSNGRMEGPPPTYSEVMGHHPGASFLHHQRSNAHRGSRLQFQQNNAESTIVPIKGKDRKPGNLV
inactive: SARS-CoV-2 M -0.0493 | SARS-CoV-2 NSP1 = 0.0229 | SARS-CoV-2 NSP10 = 0.0576 | SARS-CoV-2 NSP12 = 0.00669 | SARS-CoV-2 NSP13 = -0.0498 | SARS-CoV-2 NSP14 = -0.000602 | SARS-CoV-2 NSP16 = -0.0111 | SARS-CoV-2 NSP2 = -0.139 | SARS-CoV-2 NSP4 = -0.0768 | SARS-CoV-2 NSP5 = 0.083 | SARS-CoV-2 NSP6 = 0.0615 | SARS-CoV-2 NSP7 = 0.0317 | SARS-CoV-2 NSP8 = 0.0844 | SARS-CoV-2 NSP9 = -0.00859 | SARS-CoV-2 ORF10 = -0.0176 | SARS-CoV-2 ORF3A -0.0835 | SARS-CoV-2 ORF3B -0.0167 | SARS-CoV-2 ORF6 = 0.0221 | SARS-CoV-2 ORF7A 0.0546 | SARS-CoV-2 ORF7B 0.00938 | SARS-CoV-2 ORF8 = 0.0122 | SARS-CoV-2 ORF9B -0.0355 | [1] 0.0386 | SARS-CoV-2 S -0.0602
